Common to all, as to assay: FRET or BRET; BRET in live HEK293 cells transfected with pairs of N-terminal Rluc and YFP fusions, 96-well plates; EnduRen substrate 48 h after transfection; Rluc-NLS and YFP-NLS as controls
In experiment [1] the target is T1, YFP-TBR1 p.P542R (human) (UniProt Q16650).
T1 sequence: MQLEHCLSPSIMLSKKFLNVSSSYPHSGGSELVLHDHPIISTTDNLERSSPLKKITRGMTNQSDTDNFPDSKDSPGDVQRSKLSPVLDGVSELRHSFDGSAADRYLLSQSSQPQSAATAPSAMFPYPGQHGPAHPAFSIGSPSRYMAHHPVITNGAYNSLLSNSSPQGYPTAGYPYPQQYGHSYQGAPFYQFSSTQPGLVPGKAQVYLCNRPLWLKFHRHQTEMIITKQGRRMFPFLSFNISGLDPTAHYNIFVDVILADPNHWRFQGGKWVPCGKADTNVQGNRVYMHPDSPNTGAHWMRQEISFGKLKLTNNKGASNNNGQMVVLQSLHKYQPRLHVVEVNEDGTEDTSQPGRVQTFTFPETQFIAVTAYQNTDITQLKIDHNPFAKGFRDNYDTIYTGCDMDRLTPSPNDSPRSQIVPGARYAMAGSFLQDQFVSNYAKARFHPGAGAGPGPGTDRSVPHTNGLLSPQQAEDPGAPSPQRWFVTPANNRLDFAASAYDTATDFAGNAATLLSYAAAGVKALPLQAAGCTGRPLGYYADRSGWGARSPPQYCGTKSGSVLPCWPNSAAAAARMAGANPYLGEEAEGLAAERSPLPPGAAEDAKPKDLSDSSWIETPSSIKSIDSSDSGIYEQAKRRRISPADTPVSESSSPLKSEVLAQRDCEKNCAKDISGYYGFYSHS

Amino acid sequences for entries named in this document (tags omitted).
UniProt Q6W2J9: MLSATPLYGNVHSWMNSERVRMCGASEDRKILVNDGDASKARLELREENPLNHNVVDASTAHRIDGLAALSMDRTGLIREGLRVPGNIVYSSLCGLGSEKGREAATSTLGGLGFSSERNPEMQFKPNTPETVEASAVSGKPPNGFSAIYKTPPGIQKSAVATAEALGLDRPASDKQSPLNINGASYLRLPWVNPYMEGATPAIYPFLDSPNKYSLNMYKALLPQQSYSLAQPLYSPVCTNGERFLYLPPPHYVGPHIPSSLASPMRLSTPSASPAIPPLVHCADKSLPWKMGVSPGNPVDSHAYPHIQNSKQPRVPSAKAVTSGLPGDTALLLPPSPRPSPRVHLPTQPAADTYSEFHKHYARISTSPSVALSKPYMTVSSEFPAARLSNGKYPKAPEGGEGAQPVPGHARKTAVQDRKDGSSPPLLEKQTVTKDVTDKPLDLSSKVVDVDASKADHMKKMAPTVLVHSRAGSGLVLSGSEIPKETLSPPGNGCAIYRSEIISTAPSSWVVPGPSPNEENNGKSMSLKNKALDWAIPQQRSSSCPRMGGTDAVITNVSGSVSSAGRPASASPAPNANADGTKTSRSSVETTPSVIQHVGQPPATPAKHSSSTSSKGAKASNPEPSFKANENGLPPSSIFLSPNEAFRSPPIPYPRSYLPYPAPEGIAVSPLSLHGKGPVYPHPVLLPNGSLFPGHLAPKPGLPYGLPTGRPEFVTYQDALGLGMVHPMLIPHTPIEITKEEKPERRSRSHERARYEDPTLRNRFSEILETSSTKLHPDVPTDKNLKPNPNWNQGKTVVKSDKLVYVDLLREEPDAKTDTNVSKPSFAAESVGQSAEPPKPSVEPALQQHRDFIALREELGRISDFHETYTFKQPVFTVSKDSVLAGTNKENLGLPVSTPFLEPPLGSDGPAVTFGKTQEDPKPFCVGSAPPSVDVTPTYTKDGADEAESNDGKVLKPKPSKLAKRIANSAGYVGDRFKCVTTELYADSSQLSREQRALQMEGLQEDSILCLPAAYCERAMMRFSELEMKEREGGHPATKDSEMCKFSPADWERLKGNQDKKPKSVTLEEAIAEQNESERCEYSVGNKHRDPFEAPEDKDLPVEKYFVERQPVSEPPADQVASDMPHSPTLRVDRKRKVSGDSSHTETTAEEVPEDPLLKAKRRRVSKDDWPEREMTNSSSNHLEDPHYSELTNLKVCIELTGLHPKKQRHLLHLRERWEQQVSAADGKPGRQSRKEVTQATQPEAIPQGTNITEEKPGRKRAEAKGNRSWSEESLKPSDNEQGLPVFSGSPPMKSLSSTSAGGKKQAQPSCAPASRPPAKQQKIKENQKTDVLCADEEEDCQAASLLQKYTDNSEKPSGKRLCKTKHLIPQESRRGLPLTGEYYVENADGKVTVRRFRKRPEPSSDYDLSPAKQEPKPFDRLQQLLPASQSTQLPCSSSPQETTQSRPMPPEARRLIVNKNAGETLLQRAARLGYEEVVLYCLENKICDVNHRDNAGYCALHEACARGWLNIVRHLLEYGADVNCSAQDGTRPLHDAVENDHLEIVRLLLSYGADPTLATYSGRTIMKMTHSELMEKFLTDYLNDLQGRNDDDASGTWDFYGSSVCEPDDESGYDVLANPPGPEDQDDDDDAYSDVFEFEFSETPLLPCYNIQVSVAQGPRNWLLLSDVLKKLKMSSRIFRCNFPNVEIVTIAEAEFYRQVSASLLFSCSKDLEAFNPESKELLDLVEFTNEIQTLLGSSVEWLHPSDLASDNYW
UniProt Q8WXI9: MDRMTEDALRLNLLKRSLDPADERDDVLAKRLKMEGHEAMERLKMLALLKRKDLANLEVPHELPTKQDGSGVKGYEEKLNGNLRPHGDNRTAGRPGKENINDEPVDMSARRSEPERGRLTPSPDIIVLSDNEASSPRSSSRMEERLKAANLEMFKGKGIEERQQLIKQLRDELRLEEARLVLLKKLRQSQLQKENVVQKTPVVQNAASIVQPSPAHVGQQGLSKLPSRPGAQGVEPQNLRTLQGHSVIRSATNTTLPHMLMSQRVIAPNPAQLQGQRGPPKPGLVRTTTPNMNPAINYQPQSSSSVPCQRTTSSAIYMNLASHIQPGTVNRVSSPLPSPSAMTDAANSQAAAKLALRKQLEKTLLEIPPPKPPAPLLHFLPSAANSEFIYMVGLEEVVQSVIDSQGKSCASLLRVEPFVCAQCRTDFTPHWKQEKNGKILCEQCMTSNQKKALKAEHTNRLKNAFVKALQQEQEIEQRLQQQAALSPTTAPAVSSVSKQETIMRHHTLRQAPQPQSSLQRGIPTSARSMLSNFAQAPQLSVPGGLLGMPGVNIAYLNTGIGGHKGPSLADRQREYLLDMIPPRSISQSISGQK

Experiment [2] addresses T2, YFP-TBR1 p.W271C (human) (UniProt Q16650).
T2 sequence: T1 sequence with W271C, R542P

For experiment [3], the target named is T3, YFP-TBR1 p.N374H (human) (UniProt Q16650).
T3 sequence: T1 sequence with N374H, R542P

Experiment [4] has as its target T4, YFP-TBR1 p.N394* (human) (UniProt Q16650).
T4 sequence: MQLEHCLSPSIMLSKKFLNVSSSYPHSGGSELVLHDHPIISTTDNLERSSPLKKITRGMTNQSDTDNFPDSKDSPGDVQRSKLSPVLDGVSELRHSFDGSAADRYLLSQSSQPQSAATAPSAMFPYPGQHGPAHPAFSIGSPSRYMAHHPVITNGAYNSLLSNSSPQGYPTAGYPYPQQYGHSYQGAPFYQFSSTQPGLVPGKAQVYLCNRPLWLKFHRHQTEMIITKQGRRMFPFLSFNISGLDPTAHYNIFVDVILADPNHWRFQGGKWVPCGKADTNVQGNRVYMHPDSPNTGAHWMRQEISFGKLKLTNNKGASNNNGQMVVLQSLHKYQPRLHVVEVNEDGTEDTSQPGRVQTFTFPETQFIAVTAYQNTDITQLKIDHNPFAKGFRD

The record followed here is publication PMC10117376.

Positions count from the first letter of the chain named. These are yes or no findings as the source states them, for the method shown. Binding seen in cells or lysates may run through a third protein. Some entries that bind do so weakly or less than the wild type. Tags and fused reporters may be left off the sequences shown.

Take Rluc-BCOR (from UniProt Q6W2J9 1-1755): the binding entry in experiment [1] is “binds”; in experiment [2], “binds”; in experiment [3], “binds”; in experiment [4] it was “no binding”.

Turning to “Rluc-GATAD2B (from UniProt Q8WXI9 1-593)”, the binding result is listed as “binds” in experiment [1], “binds” in experiment [2], “binds” in experiment [3] and “no binding” in experiment [4].

B1: Rluc-NR2F1 (protein, UniProt P10589 1-423)
chain: MAMVVSSWRDPQDDVAGGNPGGPNPAAQAARGGGGGAGEQQQQAGSGAPHTPQTPGQPGAPATPGTAGDKGQGPPGSGQSQQHIECVVCGDKSSGKHYGQFTCEGCKSFFKRSVRRNLTYTCRANRNCPIDQHHRNQCQYCRLKKCLKVGMRREAVQRGRMPPTQPNPGQYALTNGDPLNGHCYLSGYISLLLRAEPYPTSRYGSQCMQPNNIMGIENICELAARLLFSAVEWARNIPFFPDLQITDQVSLLRLTWSELFVLNAAQCSMPLHVAPLLAAAGLHASPMSADRVVAFMDHIRIFQEQVEKLKALHVDSAEYSCLKAIVLFTSDACGLSDAAHIESLQEKSQCALEEYVRSQYPNQPSRFGKLLLRLPSLRTVSSSVIEQLFFVRLVGKTPIETLIRDMLLSGSSFNWPYMSIQCS
Take B1: the binding entry in experiment [1], in experiment [2], in experiment [3] and in experiment [4] was “binds” in each case.

B2: Rluc-NR2F2 (protein, UniProt P24468 1-414)
chain: MAMVVSTWRDPQDEVPGSQGSQASQAPPVPGPPPGAPHTPQTPGQGGPASTPAQTAAGGQGGPGGPGSDKQQQQQHIECVVCGDKSSGKHYGQFTCEGCKSFFKRSVRRNLSYTCRANRNCPIDQHHRNQCQYCRLKKCLKVGMRREAVQRGRMPPTQPTHGQFALTNGDPLNCHSYLSGYISLLLRAEPYPTSRFGSQCMQPNNIMGIENICELAARMLFSAVEWARNIPFFPDLQITDQVALLRLTWSELFVLNAAQCSMPLHVAPLLAAAGLHASPMSADRVVAFMDHIRIFQEQVEKLKALHVDSAEYSCLKAIVLFTSDACGLSDVAHVESLQEKSQCALEEYVRSQYPNQPTRFGKLLLRLPSLRTVSSSVIEQLFFVRLVGKTPIETLIRDMLLSGSSFNWPYMAIQ
Take B2: the binding entry in experiment [1], in experiment [2], in experiment [3] and in experiment [4] was “binds” in each case.

B3: Rluc-ADNP (protein, UniProt Q9H2P0 1-1102)
chain: MFQLPVNNLGSLRKARKTVKKILSDIGLEYCKEHIEDFKQFEPNDFYLKNTTWEDVGLWDPSLTKNQDYRTKPFCCSACPFSSKFFSAYKSHFRNVHSEDFENRILLNCPYCTFNADKKTLETHIKIFHAPNASAPSSSLSTFKDKNKNDGLKPKQADSVEQAVYYCKKCTYRDPLYEIVRKHIYREHFQHVAAPYIAKAGEKSLNGAVPLGSNAREESSIHCKRCLFMPKSYEALVQHVIEDHERIGYQVTAMIGHTNVVVPRSKPLMLIAPKPQDKKSMGLPPRIGSLASGNVRSLPSQQMVNRLSIPKPNLNSTGVNMMSSVHLQQNNYGVKSVGQGYSVGQSMRLGLGGNAPVSIPQQSQSVKQLLPSGNGRSYGLGSEQRSQAPARYSLQSANASSLSSGQLKSPSLSQSQASRVLGQSSSKPAAAATGPPPGNTSSTQKWKICTICNELFPENVYSVHFEKEHKAEKVPAVANYIMKIHNFTSKCLYCNRYLPTDTLLNHMLIHGLSCPYCRSTFNDVEKMAAHMRMVHIDEEMGPKTDSTLSFDLTLQQGSHTNIHLLVTTYNLRDAPAESVAYHAQNNPPVPPKPQPKVQEKADIPVKSSPQAAVPYKKDVGKTLCPLCFSILKGPISDALAHHLRERHQVIQTVHPVEKKLTYKCIHCLGVYTSNMTASTITLHLVHCRGVGKTQNGQDKTNAPSRLNQSPSLAPVKRTYEQMEFPLLKKRKLDDDSDSPSFFEEKPEEPVVLALDPKGHEDDSYEARKSFLTKYFNKQPYPTRREIEKLAASLWLWKSDIASHFSNKRKKCVRDCEKYKPGVLLGFNMKELNKVKHEMDFDAEWLFENHDEKDSRVNASKTADKKLNLGKEDDSSSDSFENLEEESNESGSPFDPVFEVEPKISNDNPEEHVLKVIPEDASESEEKLDQKEDGSKYETIHLTEEPTKLMHNASDSEVDQDDVVEWKDGASPSESGPGSQQVSDFEDNTCEMKPGTWSDESSQSEDARSSKPAAKKKATMQGDREQLKWKNSSYGKVEGFWSKDQSQWKNASENDERLSNPQIEWQNSTIDSEDGEQFDNMTDGVAEPMHGSLAGVKLSSQQA
Take B3: the binding entry in experiment [1] was “binds”; in experiment [2], “no binding”; in experiment [3], “no binding”; in experiment [4], “binds”.
